Assay results reported in PubChem BioAssay AID1030 (National Center for Advancing Translational Sciences (NCATS), 2008).
About 16,000 (7.3%) of roughly 220,000 compounds were called active. This list was built around the results that the source calls inconclusive (neither active nor inactive); the mix of calls is not that of the screen. Calls come from the whole dose curve; as a rule, active = well fitted inhibition curve with a large enough effect (not every such curve was filed as active); inconclusive = small, poorly fitted or top-dose-only effect, or another doubt; inactive = no such curve, though single readings can be large or run the other way. Potencies of inconclusive entries are left out as doubtful fits.

These compounds were tested against Aldehyde dehydrogenase 1A1 (Homo sapiens) (UniProt P00352) (assay: qHTS Assay for Inhibitors of Aldehyde Dehydrogenase 1 (ALDH1A1)). Settings: Purified ALDH1A1, NADH fluorescence, propionaldehyde substrate; series mostly up to 75.3 µM; activity, negative = inhibition: at the top concentration.
Potency is the fitted concentration of half-maximal effect; tags give direction and shape of the fitted curve.
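Throughout, for activity, negative = inhibition: plate controls were no enzyme wells and a reference inhibitor.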

Sequence of UniProt P00352 (P00352 whole entry, looked up): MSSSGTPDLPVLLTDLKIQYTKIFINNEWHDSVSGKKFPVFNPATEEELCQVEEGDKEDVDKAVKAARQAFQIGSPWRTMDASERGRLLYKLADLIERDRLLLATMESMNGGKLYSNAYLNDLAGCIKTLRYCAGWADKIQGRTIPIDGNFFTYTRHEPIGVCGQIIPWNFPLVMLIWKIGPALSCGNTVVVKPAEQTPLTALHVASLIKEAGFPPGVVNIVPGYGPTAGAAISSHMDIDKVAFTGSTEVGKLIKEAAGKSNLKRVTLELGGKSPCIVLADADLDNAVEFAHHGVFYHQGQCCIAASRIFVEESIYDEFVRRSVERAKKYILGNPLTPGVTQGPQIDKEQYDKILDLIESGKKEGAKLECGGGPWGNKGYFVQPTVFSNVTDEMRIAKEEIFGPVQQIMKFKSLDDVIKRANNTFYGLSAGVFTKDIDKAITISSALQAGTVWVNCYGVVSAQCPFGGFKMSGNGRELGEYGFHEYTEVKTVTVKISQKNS

SMILES | Potency | activity, negative = inhibition
COc1cccc(-n2nnnc2SCC(=O)NCCc2ccc(OC)c(OC)c2)c1 | inconclusive [inhibitor, partial curve] | –
CCOC(=O)C1CCN(C(=O)c2ccc(Br)o2)CC1 | active: 3.16 µM | –
C#C[C@@]1(O)CCC2C3CCC4=CC(=O)CCC4C3CC[C@@]21CC (stereo partly specified) | – | inactive: -1.55%
CC1=CC2=NC(=O)/C(=C\c3cccn3CCOc3ccccc3C)C(=N)N2O1 | inconclusive [inhibitor, single point] | –
CCOC(=O)c1c(C)n(-c2ccc(C)cc2)c2c(C(C(C)=O)C(=O)O)c(Br)c(O)c(O)c12 (stereo unspecified) | inconclusive [inhibitor, full curve] | –
Cc1cc(Cl)ccc1Nc1ncccc1C(N)=O | inconclusive [inhibitor, single point] | –
O=[N+]([O-])c1ccc(NCCNS(=O)(=O)c2ccccc2)cc1 | inconclusive [inhibitor, single point] | –
CC(NC(=S)Nc1ccccc1C(F)(F)F)C1CC2CCC1C2 (stereo unspecified) | inconclusive [inhibitor, single point] | –
COc1ccc(C(=O)/C=C/c2ccc(OC3CSC3)cc2)cc1 | inconclusive [inhibitor, single point] | –
CCCc1cc(C(N)=O)c(NC(=O)C2CCCO2)s1 (stereo unspecified) | active: 14.1 µM | –
O=C(COC(=O)c1c(Cl)cccc1Cl)Nc1cc(Cl)ccc1Oc1ccccc1 | inconclusive [inhibitor, partial curve, poor fit] | –
O=c1c(-c2cccs2)nc2cnc(Oc3ccccc3)nc2n1C1CC1 | inconclusive [inhibitor, partial curve] | –
O=c1c2c3c(sc2n2cnnc2n1-c1ccccc1)N(Cc1ccccc1)CCC3 | inconclusive [inhibitor, partial curve] | –
CC(C)(C)c1ccc(C(=O)OCCNC(=O)c2c(Cl)nc3ccccn23)cc1 | inconclusive [inhibitor, partial curve] | –
c1ccc(SCc2nc(-c3ccccn3)no2)cc1 | inconclusive [inhibitor, single point] | –
Cc1ccccc1Cn1c(CN2CCN(C(=O)c3ccco3)CC2)nc2c1c(=O)n(C)c(=O)n2C | inconclusive [inhibitor, partial curve] | –
O=C(CCl)Nc1cccc(S(=O)(=O)N2CCCCCC2)c1 | active: 0.708 µM | –
CC1(C)CC2(CCO1)OC(=O)CC2C(=O)Nc1ccccc1Cl (stereo unspecified) | – | inactive: -6.83%
COc1ccccc1CNC(=O)COC(=O)c1n[nH]c2ccccc12 | inconclusive [inhibitor, partial curve] | –
COc1ccc(C(C)C)cc1S(=O)(=O)N1CCN(c2ccccc2)CC1 | inconclusive [inhibitor, partial curve] | –
Cc1ccc2nc(-c3ccncc3)c(NC3CCCCC3)n2c1 | inconclusive [inhibitor, single point] | –
O=C1c2cccc(OCc3ccc(F)cc3)c2CCN1Cc1ccc(F)cc1 | – | inactive: 17%
CCOC(=O)Cc1csc(NC(=O)COc2ccc3c(C)cc(=O)oc3c2)n1 | inconclusive [inhibitor, partial curve] | –

SMILES | Potency | activity, negative = inhibition
Cc1oc2cc(O)ccc2c(=O)c1Oc1ccccc1 | inconclusive [inhibitor, partial curve] | –
O=C(N/N=C/c1c(O)n(-c2ccccc2Cl)c(=O)c2ccccc12)c1cccnc1 | active: 14.1 µM | –
COC(=O)c1ccc(C(=O)OC)c(NC(=O)c2cnc3n(c2=O)CCS3)c1 | inconclusive [inhibitor, single point] | –
O=C(/C=C/c1ccc2c(c1)OCO2)NCCCN1CCOCC1 | inconclusive [inhibitor, single point] | –
CC(C)c1nc(SCC(=O)Nc2c[nH]c(=O)[nH]c2=O)c2cnn(-c3ccccc3)c2n1 | – | inactive: 12.9%
CO[C@@H]1COC(=O)[C@H]2CCCN2C(=O)[C@@H](C)COC(=O)C/C=C\[C@H]1C | – | inactive: 2.36% [at 13.5 µM]
Cc1ccc(-c2nc(CN(Cc3cnn(C)c3)C(C)C)c(C)o2)o1 | inconclusive [inhibitor, single point] | –
COc1ccc(NC(=O)C(C)N2C(=O)c3ccccc3C2=O)cc1S(=O)(=O)N1CCOCC1 (stereo unspecified) | – | inactive: -2.54%
O=C(NCC12CC3CC(CC(C3)C1)C2)c1nn2cccnc2c1Cl | active: 15.8 µM | –
O=Cc1c(OCc2ccccc2)ccc2ccccc12 | – | inactive: -14.4%
COC(=O)c1cn(C(=O)c2ccccc2Cl)c2ccccc12 | inconclusive [inhibitor, single point] | –
O=C(Nc1ccccc1)Nc1nnc(-c2ccccc2)s1 | – | inactive: 9.65%
COc1cc(OC)cc(-c2n[nH]c(=S)n2-c2ccc3c(c2)OCO3)c1 | – | inactive: 5%
COc1cccc(NC(=O)NCCCSC2CCCCC2)c1 | inconclusive [inhibitor, single point] | –
CCCCNC(=O)Nc1c(C)cc(SC#N)cc1C | active: 0.562 µM | –
COc1ccc(CCC(=O)OCC(=O)c2ccc(C)cc2)cc1 | – | inactive: -4.07%
COc1ccc(-c2ccc(Nc3ccc(S(=O)(=O)N4CCCC4)cc3)nn2)cc1OC | inconclusive [inhibitor, single point] | –
COCCN1CCN(c2cc(-c3ccccc3)nc3cc(-c4cccc(F)c4)nn23)CC1 | inconclusive [inhibitor, single point] | –
COc1ccc(OC2C(O)COC2/C=C/C#Cc2ccccc2)cc1 (stereo unspecified) | inconclusive [inhibitor, single point] | –
CC(C)NS(=O)(=O)c1ccc(CCC(=O)NCc2ccncc2)cc1 | – | inactive: -0.993%
Cc1ccc(OCCCC(=O)NC(C)c2ccccc2)cc1 (stereo unspecified) | inconclusive [inhibitor, single point] | –
C=CCSc1nc(N)c(C(=O)Nc2ccccc2)cc1C#N | inconclusive [inhibitor, single point] | –
Cc1ccc2c(c1)-c1c(ssc1=S)C(C)(C)N2C(=O)c1ccco1 | active: 10 µM | –
